Laboratory results published in patent US20120189706A1, “Macrocystis Pyrifera Derived Health and Wellness Products and Methods of Using the Same” (Knocean Sciences, Inc., priority 2009, published 2012).

Test system: Dengue Virus Type 2 strain New Guinea C
Experiment: Dengue Virus Cytoprotection assay
Format: cell-based
Conditions: Vero C1008, 168 h, DENV2 Strain New Guinea C, Vero E6 cells, 7 days
Experimental: For each assay, a pre-titered aliquot of virus is removed from the freezer (−80° C.) and allowed to thaw slowly to room temperature in a biological safety cabinet. The virus is re-suspended and diluted into tissue culture medium such that the amount of virus added to each well is the amount determined to give between 85 to 95% cell killing at 6-7 days post-infection.

## NC(=O)c1ncn([C@@H]2O[C@H](CO)[C@@H](O)[C@H]2O)n1 [Ribavirin, ribavirin]
  IC50: 30.7 µg/mL (≈ 126 µM)

Values after ≈ are worked out from the molar mass of the structure shown.
